Laboratory results published in the supplement of paper PMC8728848.
Some of the results follow.

How the values were obtained:
Assay in all cases: glycan array binding signal (z-score within array); higher = stronger binding
Conditions in all cases: glycan notation: IUPAC condensed, linker removed
[1] = molecular target: Neu5Ac(a2-3)Gal(b1-3)GalNAc(b1-4)Gal(b1-4)Glc
Method in brief: (§1)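 Arrays were curated from the Consortium for Functional Glycomics database, 3228 in total, and kept only where the protein sequence was available. Binding is expressed as a within-array Z-score. This score was averaged across arrays of the same protein sequence at different concentrations or buffers and across linkers, and negative values can be read as non-binding.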

[2] = molecular target: Neu5Ac(a2-3)Gal(b1-3)GalNAc(b1-4)[Neu5Ac(a2-3)]Gal(b1-4)Glc
Method in brief: as §1

[3] = molecular target: Neu5Ac(a2-3)Gal(b1-3)GalNAc(b1-4)[Neu5Ac(a2-8)Neu5Ac(a2-3)]Gal(b1-4)Glc
Method in brief: as §1

[4] = molecular target: Neu5Ac(a2-3)Gal(b1-3)GlcNAc
Method in brief: as §1

[5] = molecular target: Neu5Ac(a2-3)Gal(b1-3)GlcNAc(b1-3)Gal(b1-4)Glc
Method in brief: as §1

[6] = molecular target: Neu5Ac(a2-3)Gal(b1-3)GlcNAc(b1-3)[Fuc(a1-3)[Gal(b1-4)]GlcNAc(b1-6)]Gal(b1-4)Glc
Method in brief: as §1

[7] = molecular target: Neu5Ac(a2-3)Gal(b1-3)[Fuc(a1-4)]GlcNAc
Method in brief: as §1

[8] = molecular target: Neu5Ac(a2-3)Gal(b1-3)[Fuc(a1-4)]GlcNAc(b1-3)Gal(b1-4)Glc
Method in brief: as §1

[9] = molecular target: Neu5Ac(a2-3)Gal(b1-3)[Neu5Ac(a2-6)]GalNAc
Method in brief: as §1

[10] = molecular target: Neu5Ac(a2-3)Gal(b1-3)[Neu5Ac(a2-6)]GlcNAc(b1-3)Gal(b1-4)Glc
Method in brief: as §1

Neu5Ac(a2-3)Gal(b1-4)Glc = molecular target: Neu5Ac(a2-3)Gal(b1-4)Glc
Method in brief: as §1

[11] = molecular target: Neu5Ac(a2-3)Gal(b1-4)GlcNAc
Method in brief: as §1

[12] = molecular target: Neu5Ac(a2-3)Gal(b1-4)GlcNAc(b1-2)Man(a1-3)[Neu5Ac(a2-3)Gal(b1-4)GlcNAc(b1-2)Man(a1-6)]Man(b1-4)GlcNAc(b1-4)[Fuc(a1-6)]GlcNAc
Method in brief: as §1

[13] = molecular target: Neu5Ac(a2-3)Gal(b1-4)GlcNAc(b1-3)Gal(b1-4)Glc
Method in brief: as §1

[14] = molecular target: Neu5Ac(a2-3)Gal(b1-4)GlcNAc6S(b1-3)Gal6S(b1-3)GlcNAc6S
Method in brief: as §1

[15] = molecular target: Neu5Ac(a2-3)Gal(b1-4)[Fuc(a1-3)]GlcNAc
Method in brief: as §1

[16] = molecular target: Neu5Ac(a2-3)Gal(b1-4)[Fuc(a1-3)]GlcNAc(b1-3)Gal
Method in brief: as §1

[17] = molecular target: Neu5Ac(a2-3)Gal(b1-4)[Fuc(a1-3)]GlcNAc(b1-3)Gal(b1-4)Glc
Method in brief: as §1

[18] = molecular target: Neu5Ac(a2-3)Gal(b1-4)[Fuc(a1-3)]GlcNAc(b1-3)Gal(b1-4)[Fuc(a1-3)]GlcNAc(b1-3)Gal(b1-4)Glc
Method in brief: as §1

[19] = molecular target: Neu5Ac(a2-3)Gal(b1-4)[Fuc(a1-3)]GlcNAc6S(b1-3)Gal(b1-4)Glc
Method in brief: as §1

[20] = molecular target: Neu5Ac(a2-3)Gal6S(b1-4)[Fuc(a1-3)]GlcNAc(b1-3)Gal(b1-4)Glc
Method in brief: as §1

[21] = molecular target: Neu5Ac(a2-3)Gal6S(b1-4)[Fuc(a1-3)]GlcNAc6S(b1-3)Gal(b1-4)Glc
Method in brief: as §1

[22] = molecular target: Neu5Ac(a2-3)[GalNAc(b1-4)]Gal(b1-3)GalNAc(b1-4)[Neu5Ac(a2-3)]Gal(b1-4)Glc
Method in brief: as §1

[23] = molecular target: Neu5Ac(a2-3)[GalNAc(b1-4)]Gal(b1-4)Glc
Method in brief: as §1

[24] = molecular target: Neu5Ac(a2-6)Gal(b1-3)GlcNAc(b1-3)[Fuc(a1-3)[Gal(b1-4)]GlcNAc(b1-6)]Gal(b1-4)Glc
Method in brief: as §1

[25] = molecular target: Neu5Ac(a2-6)Gal(b1-3)GlcNAc(b1-3)[Gal(b1-4)GlcNAc(b1-6)]Gal(b1-4)Glc
Method in brief: as §1

Neu5Ac(a2-6)Gal(b1-4)Glc = molecular target: Neu5Ac(a2-6)Gal(b1-4)Glc
Method in brief: as §1

[26] = molecular target: Neu5Ac(a2-6)Gal(b1-4)GlcNAc
Method in brief: as §1

[27] = molecular target: Neu5Ac(a2-6)Gal(b1-4)GlcNAc(b1-2)Man(a1-3)[Neu5Ac(a2-6)Gal(b1-4)GlcNAc(b1-2)Man(a1-6)]Man(b1-4)GlcNAc(b1-4)GlcNAc
Method in brief: as §1

[28] = molecular target: Neu5Ac(a2-6)Gal(b1-4)GlcNAc(b1-2)Man(a1-3)[Neu5Gc(a2-6)Gal(b1-4)GlcNAc(b1-2)Man(a1-6)]Man(b1-4)GlcNAc(b1-4)GlcNAc
Method in brief: as §1

[29] = molecular target: Neu5Ac(a2-6)Gal(b1-4)GlcNAc(b1-2)[Neu5Ac(a2-3)Gal(b1-4)GlcNAc(b1-4)]Man(a1-3)[Neu5Ac(a2-3)Gal(b1-4)GlcNAc(b1-2)Man(a1-6)]Man(b1-4)GlcNAc(b1-4)GlcNAc
Method in brief: as §1

[30] = molecular target: Neu5Ac(a2-6)Gal(b1-4)GlcNAc(b1-3)Gal(b1-4)Glc
Method in brief: as §1

[31] = molecular target: Neu5Ac(a2-6)Gal(b1-4)GlcNAc(b1-3)Gal(b1-4)[Fuc(a1-3)]Glc
Method in brief: as §1

[32] = molecular target: Neu5Ac(a2-6)Gal(b1-4)GlcNAc(b1-3)[Neu5Ac(a2-6)Gal(b1-4)GlcNAc(b1-6)]Gal(b1-4)Glc
Method in brief: as §1

B1: MIC1 (Toxoplasma gondii), O00834 (protein)
chain: VGPEAYGEASHSHSPASGRYIQQMLDQRCQEIAAELCQSGLRKMCVPSSRIVARNAVGITHQNTLQWRCFDTASLLESNQENNGVNCVDDCGHTIPCPGGVHRQNSNHATRHEILSKLVEEGVQRFCSPYQASANKYCNDKFPGTIARRSKGFGNNVEVAWRCYEKASLLYSVYAECASNCGTTWYCPGGRRGTSTELDKRHYTEEEGIRQAIGSVDSPCSEVEVCLPKDENPPLCLDESGQISRT
- glycan array binding signal (z-score) [1]: -0.42
- glycan array binding signal (z-score) [2]: 1.69
- glycan array binding signal (z-score) [3]: 1.48
- glycan array binding signal (z-score) [4]: 2.24
- glycan array binding signal (z-score) [5]: 1.71
- glycan array binding signal (z-score) [6]: 0.358
- glycan array binding signal (z-score) [7]: 1
- glycan array binding signal (z-score) [8]: -0.005
- glycan array binding signal (z-score) [9]: 1.81
- glycan array binding signal (z-score) [10]: 1.73
- glycan array binding signal (z-score) (Neu5Ac(a2-3)Gal(b1-4)Glc): 0.76
- glycan array binding signal (z-score) [11]: 1.75
- glycan array binding signal (z-score) [12]: 2.46
- glycan array binding signal (z-score) [13]: 0.544
- glycan array binding signal (z-score) [14]: 4.52
- glycan array binding signal (z-score) [15]: 0.453
- glycan array binding signal (z-score) [16]: -0.439
- glycan array binding signal (z-score) [17]: 0.087
- glycan array binding signal (z-score) [18]: -0.052
- glycan array binding signal (z-score) [19]: 1.73
- glycan array binding signal (z-score) [20]: 1.33
- glycan array binding signal (z-score) [21]: 2.46
- glycan array binding signal (z-score) [22]: 1.29
- glycan array binding signal (z-score) [23]: 2.98
- glycan array binding signal (z-score) [24]: -0.408
- glycan array binding signal (z-score) [25]: -0.332
- glycan array binding signal (z-score) (Neu5Ac(a2-6)Gal(b1-4)Glc): -0.342
- glycan array binding signal (z-score) [26]: -0.277
- glycan array binding signal (z-score) [27]: 0.047
- glycan array binding signal (z-score) [28]: -0.013
- glycan array binding signal (z-score) [29]: 1.84
- glycan array binding signal (z-score) [30]: -0.205
- glycan array binding signal (z-score) [31]: -0.348
- glycan array binding signal (z-score) [32]: -0.268
